This is an account of results in the antibiotic and cytotoxicity screens of Wong et al. (2023).

The list shows a part of the results.

The subject of one assay is HSkMC. The experiment in a line: cytotoxicity call (relative viability < 0.9). Conditions: 10 µM.
In the next assay the test system is HepG2. The experiment in a line: cytotoxicity call (relative viability < 0.9). The following applies: 10 µM.
Another assay has as its system S. aureus RN4220. Briefly: growth inhibition call (relative growth <= 0.2). The following applies: 50 µM.

Consider `COc1ccc(CN(C)C[C@H]2Oc3ccc(NC(=O)CCN4CCOCC4)cc3C(=O)N([C@H](C)CO)C[C@@H]2C)cc1`, for which the cytotoxicity call with HSkMC and with HepG2 was “inactive” each time. For the same compound, the growth inhibition call in the assay on S. aureus RN4220 is “inactive”.
For the compound `COc1ccc(CN(C)C[C@@H]2OCCCC[C@@H](C)Oc3ccc(NS(=O)(=O)c4c(C)noc4C)cc3C(=O)N([C@@H](C)CO)C[C@@H]2C)cc1`, the cytotoxicity call in the assay with HSkMC and in the assay with HepG2 was “inactive” in each case. For the same compound, in the assay with S. aureus RN4220, the growth inhibition call is “inactive”.
For `C[C@@H]1CCCCO[C@@H](CN(C)CC2CCCCC2)[C@H](C)CN([C@@H](C)CO)C(=O)c2cc(NC(=O)Nc3ccc4c(c3)OCO4)ccc2O1`, the cytotoxicity call in the assay on HSkMC and in the assay on HepG2 was “inactive” throughout. The growth inhibition call in the assay with S. aureus RN4220 is “inactive”.
Regarding `COc1ccc(NC(=O)N(C)C[C@H]2Oc3c(NS(=O)(=O)c4cn(C)cn4)cccc3C(=O)N([C@H](C)CO)C[C@@H]2C)cc1`, the cytotoxicity call in the assay with HSkMC and in the assay with HepG2 was “inactive” throughout. For the same compound, the growth inhibition call in the assay on S. aureus RN4220 was “inactive”.
On to `C[C@@H]1CCCCO[C@H](CN(C)C(=O)Nc2ccc(F)cc2)[C@@H](C)CN([C@@H](C)CO)C(=O)c2cc(NC(=O)c3ccccc3)ccc2O1`, for which the cytotoxicity call in the assay on HSkMC and in the assay on HepG2 was “inactive” in each case. In the assay with S. aureus RN4220, the growth inhibition call was “inactive”.
As for `COc1ccc(S(=O)(=O)N(C)C[C@@H]2Oc3c(NC(=O)Nc4cccc5ccccc45)cccc3C(=O)N([C@@H](C)CO)C[C@H]2C)c(OC)c1`, the cytotoxicity call in the assay with HSkMC and with HepG2 was “active” each time. Moreover, in the assay on S. aureus RN4220, the growth inhibition call is “inactive”.
`C[C@H]1CN([C@@H](C)CO)C(=O)c2cc(C#CCN(C)C)cnc2O[C@@H]1CN(C)C(=O)c1ccc2c(c1)OCO2`: the cytotoxicity call with HSkMC and in the assay with HepG2 was “inactive” each time. The growth inhibition call in the assay with S. aureus RN4220 was “inactive”.
As for `O=C(C[C@@H]1CC[C@H]2[C@@H](COC[C@@H](O)CN2S(=O)(=O)c2ccc(Cl)cc2)O1)N[C@@H]1CCN(Cc2ccccc2)C1`, the cytotoxicity call in the assay on HSkMC and in the assay with HepG2 was “inactive” throughout. Moreover, the growth inhibition call with S. aureus RN4220 was “inactive”.
For `Cc1ccc(S(=O)(=O)N(C)C[C@H]2Oc3ccc(NC(=O)NC(C)C)cc3CC(=O)N([C@@H](C)CO)C[C@H]2C)cc1`, the cytotoxicity call with HSkMC and with HepG2 was “inactive” throughout. Further, the growth inhibition call in the assay on S. aureus RN4220 was “inactive”.
For the compound `CNC(=O)[C@H]1C[C@H]2CCN(S(=O)(=O)N(C)C)C[C@H]2O1`, the cytotoxicity call in the assay with HSkMC and in the assay on HepG2 was “inactive” throughout. Also, the growth inhibition call in the assay on S. aureus RN4220 is “inactive”.
For `C[C@@H](O)C#Cc1cnc2c(c1)C(=O)N([C@@H](C)CO)C[C@H](C)[C@@H](CN(C)C(=O)Nc1ccc(C(F)(F)F)cc1)O2`, the cytotoxicity call with HSkMC and in the assay with HepG2 was “inactive” throughout. Besides, the growth inhibition call with S. aureus RN4220 is “inactive”.
For the compound `COCC(=O)Nc1ccc2c(c1)OC[C@H](C)N(Cc1ccccc1F)C[C@@H](C)[C@H](OC)CN(C)C2=O`, the cytotoxicity call in the assay on HSkMC and in the assay on HepG2 was “inactive” each time. Further, in the assay on S. aureus RN4220, the growth inhibition call was “inactive”.
On to `N=C1SCCN1CC(=O)O`, for which the cytotoxicity call with HSkMC and in the assay with HepG2 was “inactive” throughout. For the same compound, the growth inhibition call in the assay on S. aureus RN4220 is “inactive”.
On to `Cc1cc(Oc2ccc3nc(COc4ccc(C[C@H]5SC(=O)NC5=O)cc4)n(C)c3c2)cc(C)c1N`, for which the cytotoxicity call with HSkMC and with HepG2 was “inactive” each time. Besides, the growth inhibition call with S. aureus RN4220 was “inactive”.
For the compound `O=C(C[C@@H]1CC[C@H]2[C@@H](COC[C@H](O)CN2S(=O)(=O)c2ccccc2)O1)NCCN1CCCC1`, the cytotoxicity call in the assay with HSkMC and with HepG2 was “inactive” throughout. Further, the growth inhibition call in the assay on S. aureus RN4220 is “inactive”.
Consider `CC1(C)[C@H]2CC[C@@]1(C)/C(=N/O)C2`, for which the cytotoxicity call with HSkMC and in the assay with HepG2 was “inactive” in each case. The growth inhibition call in the assay with S. aureus RN4220 is “inactive”.
In the case of `COc1ccc(NC(=O)Nc2ccc3c(c2)C(=O)N([C@H](C)CO)C[C@@H](C)[C@@H](CN(C)Cc2ccc(C(=O)Nc4ccccc4N)cc2)O3)cc1`, the cytotoxicity call in the assay on HSkMC and with HepG2 was “inactive” in each case. For the same compound, the growth inhibition call in the assay on S. aureus RN4220 is “inactive”.
On to `C[C@@H]1CN([C@H](C)CO)C(=O)Cc2cc(NS(C)(=O)=O)ccc2O[C@H]1CN(C)C(=O)Nc1ccc2c(c1)OCO2`, for which the cytotoxicity call with HSkMC and in the assay on HepG2 was “inactive” in each case. The growth inhibition call in the assay on S. aureus RN4220 is “inactive”.
On to `C[C@@H]1CN([C@H](C)CO)C(=O)c2cc(NS(C)(=O)=O)ccc2O[C@@H]1CN(C)Cc1ccc(C(=O)Nc2ccccc2N)cc1`, for which the cytotoxicity call in the assay on HSkMC and in the assay with HepG2 was “inactive” throughout. The growth inhibition call with S. aureus RN4220 was “inactive”.
`C[C@H]1CN([C@@H](C)CO)C(=O)Cc2cc(NS(=O)(=O)c3cn(C)cn3)ccc2O[C@@H]1CN(C)Cc1ccc(C(=O)O)cc1`: the cytotoxicity call with HSkMC and in the assay with HepG2 was “inactive” throughout. The growth inhibition call in the assay with S. aureus RN4220 is “inactive”.
With `Cc1ccc(S(=O)(=O)N(C)C[C@@H]2Oc3ccc(NC(=O)Nc4cccc5ccccc45)cc3C(=O)N([C@@H](C)CO)C[C@H]2C)cc1`, the cytotoxicity call with HSkMC and with HepG2 was “inactive” each time. For the same compound, the growth inhibition call in the assay with S. aureus RN4220 is “inactive”.
`CCC(=O)C12CC3CC(CC(C3)C1)C2`: the cytotoxicity call in the assay with HSkMC and with HepG2 was “inactive” each time. Moreover, the growth inhibition call in the assay with S. aureus RN4220 is “inactive”.
Turning to `O=C(C[C@@H]1CC[C@H](NS(=O)(=O)c2ccccc2)[C@H](CO)O1)NCc1ccncn1`, the cytotoxicity call with HSkMC and with HepG2 was “inactive” each time. In addition, in the assay with S. aureus RN4220, the growth inhibition call was “inactive”.
Consider `COc1ccc(S(=O)(=O)N(C)C[C@@H]2Oc3c(NS(=O)(=O)c4cn(C)cn4)cccc3C(=O)N([C@H](C)CO)C[C@@H]2C)cc1`, for which the cytotoxicity call in the assay on HSkMC (human skeletal muscle cells) and with HepG2 was “inactive” each time. Moreover, the growth inhibition call in the assay on S. aureus RN4220 is “inactive”.
As to `COc1cccc(-c2ccc3c(c2)O[C@@H](CN(C)C(=O)C2CCOCC2)[C@H](C)CN([C@H](C)CO)S3(=O)=O)c1`, the cytotoxicity call in the assay with HSkMC and in the assay with HepG2 was “inactive” each time. For the same compound, in the assay with S. aureus RN4220, the growth inhibition call is “inactive”.
